In PubChem BioAssay AID927 (National Center for Advancing Translational Sciences (NCATS), 2007):
Out of some 60,000 compounds screened, about 65 (0.1%) were called active. This list was built around the results that the source calls inconclusive (neither active nor inactive); the mix of calls is not that of the screen. Calls follow the shape of the dose curve; as a rule, active = well fitted inhibition curve with a large enough effect; inconclusive = small, poorly fitted or top-dose-only effect; inactive = no such curve, though single readings can be large or run the other way. Potencies of inconclusive entries are doubtful fits and often do not repeat. Some structures have more than one record in an assay (separate samples or runs), and their calls can disagree.

What follows are compounds tested against Ubiquitin carboxyl-terminal hydrolase 2 (Homo sapiens) (UniProt O75604) (assay: qHTS Assay for Inhibitors of Ubiquitin-specific Protease USP2a). Settings: USP2a enzymatic assay; Potency: qHTS inhibition; activity change, negative = inhibition: at 38.3 µM (top of the series).
UniProt O75604, sequence (O75604 whole entry, looked up): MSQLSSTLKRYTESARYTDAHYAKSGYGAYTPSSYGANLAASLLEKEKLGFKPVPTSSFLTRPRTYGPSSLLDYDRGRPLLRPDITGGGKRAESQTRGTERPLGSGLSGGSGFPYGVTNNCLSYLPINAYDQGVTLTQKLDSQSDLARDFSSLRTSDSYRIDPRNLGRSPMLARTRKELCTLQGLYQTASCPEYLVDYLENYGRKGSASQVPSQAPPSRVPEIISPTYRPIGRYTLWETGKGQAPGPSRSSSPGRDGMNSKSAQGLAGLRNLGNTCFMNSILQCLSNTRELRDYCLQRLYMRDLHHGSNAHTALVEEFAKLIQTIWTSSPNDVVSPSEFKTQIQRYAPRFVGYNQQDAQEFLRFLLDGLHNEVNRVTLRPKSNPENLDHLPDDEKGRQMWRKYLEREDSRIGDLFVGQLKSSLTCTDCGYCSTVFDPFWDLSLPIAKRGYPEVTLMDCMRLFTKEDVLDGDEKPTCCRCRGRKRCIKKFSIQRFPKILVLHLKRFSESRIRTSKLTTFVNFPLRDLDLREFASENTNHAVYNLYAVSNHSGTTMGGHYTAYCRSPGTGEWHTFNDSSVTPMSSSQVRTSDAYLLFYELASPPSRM
Outline: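 USP2 core (20nM final) preincubated 30 min RT with compound, then Ub-PLA2 20nM and NBD C6-HPC 20uM final added; buffer 20mM Tris-HCl pH 8.0, 2mM CaCl2. Fluorescence Ex 460/Em 535 read at 0 and 2.5 h; normalized to NEM.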
Also: nearly all actives have a fitted effect of over 60% in size.
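For activity change, negative = inhibition in this document: plate controls were DMSO for no effect and NEM full inhibition control for full effect.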
Potency is read from the fitted curve at half-maximal effect; tags tell the direction and shape of the fitted curve.

Row | Compound | activity change, negative = inhibition | Potency
1 | Cc1nnc2sc(-c3csc4c3CCCC4)nn12 | inactive: 13.3% | –
2 | COc1cc2cc(C(c3nnnn3C3CCCC3)N3CCc4ccccc43)c(=O)[nH]c2cc1OC (centres undefined) | – | inconclusive: 25.1 µM [inhibitor, single point]
3 | CCc1ccc2oc(=O)cc(CN(C)Cc3ccccc3)c2c1 | – | inconclusive: 12.6 µM [inhibitor, single point]
4 | O=C(Nc1ccc(N2CCOCC2)cc1)c1cnsn1 | inactive: -1.79% | –
5 | CCS(=O)(=O)Nc1ccc(C(=O)CC2(O)C(=O)Nc3ccc(Br)cc32)cc1 (centres undefined) | – | inconclusive: 25.1 µM [inhibitor, single point]
6 | CCN(CC)CC(=O)c1c[nH]c2ccccc12 | – | inconclusive: 15.8 µM [inhibitor, single point]
7 | CCOC(=O)C1C2C=CC3(CN(Cc4ccco4)C(=O)C13)O2 (centres undefined) | – | inconclusive: 3.16 µM [inhibitor, full curve]
8 | COc1cccc(CNC(=O)c2nnn(CC(=O)Nc3ccc(C)c(C)c3)c2N)c1 | – | inconclusive: 25.1 µM [inhibitor, single point]
9 | Cc1ccccc1-n1nnnc1SCC(N)=O | inactive: -2% | –
10 | Cc1nn(-c2ccccc2)c2sc(C(=O)N3CCc4ccccc4C3)cc12 | – | inconclusive: 25.1 µM [inhibitor, single point]
11 | O=C(Nc1sc2c(c1C(=O)O)CCCCC2)c1ccco1 | – | inconclusive: 10 µM [inhibitor, single point]
12 | CCCn1c(C(O)c2ccc3c(c2)OCO3)nc2ccccc21 (centres undefined) | – | inconclusive: 5.01 µM [inhibitor, single point]
13 | COc1ccccc1NC(=O)N1CCN(c2cccc(C(F)(F)F)c2)CC1 | – | inconclusive: 25.1 µM [inhibitor, single point]
14 | Cc1cc2c(c(=O)o1)C1(C(=O)N(C)c3ccccc31)C(C#N)=C(N)O2 (centres undefined) | – | inconclusive: 0.501 µM [inhibitor, partial curve, poor fit]
15 | CCOC(=O)c1c(N)sc2c(OC)c(Br)ccc12 | – | inconclusive: 25.1 µM [inhibitor, single point]
16 | COc1cc(O)c2c(=O)cc(C)oc2c1CC=C(C)C | – | inconclusive: 12.6 µM [inhibitor, single point]
17 | O=C(c1cc2ccccc2oc1=O)N1CCCN(C(=O)c2cc3ccccc3oc2=O)CC1 | inactive: 4.39% | –
18 | N#CCSc1n[nH]c2nc3c(c(=O)n12)C1(CCCC1)Cc1ccccc1-3 | – | inconclusive: 5.01 µM [inhibitor, partial curve]
19 | NC(=O)Cn1c(=O)n(CCCC(=O)NC2CCN(Cc3ccccc3)CC2)c(=O)c2ccccc21 | inactive: 7.6% | –
20 | CCCCOCC(O)CN1CCN(C(C)=O)CC1 (centres undefined) | – | inconclusive: 25.1 µM [inhibitor, single point]
21 | O=C(Oc1cccc2c(O)cccc12)c1ccccc1 | – | active: 12.6 µM
22 | CC(=O)NC1(c2ccccc2)CCN(c2nc(C)cc(C)n2)CC1 | inactive: 5.99% | –
23 | CCOc1cc(S(=O)(=O)NCc2ccccc2)ccc1F | inactive: 3.51% | –
24 | CC(C)(C)c1nc(SCC(=O)NCc2ccco2)c2ccccc2n1 | – | inconclusive: 3.98 µM [inhibitor, single point]
25 | CCOC(=O)Cc1nnc(NC(=O)C(CC)Sc2nnc3c4ccccc4n(C)c3n2)s1 (centres undefined) | inactive: 45.3% | –

Row | Compound | activity change, negative = inhibition | Potency
26 | Cc1cc(C(=O)Nc2nnc(-c3ccccc3)s2)no1 | – | inconclusive: 7.94 µM [inhibitor, partial curve]
27 | CC(C)=CCc1c2c(c3occ(-c4ccc(O)c(O)c4)c(=O)c3c1O)C=CC(C)(C)O2 | – | inconclusive: 10 µM [inhibitor, single point]
28 | COc1ccccc1-n1c(C)nnc1SCC(=O)Nc1cc(C)cc(C)c1 | – | inconclusive: 20 µM [inhibitor, single point]
29 | O=C(O)C1=CC(=C(c2ccc(O)c(C(=O)O)c2)c2ccc(O)c(C(=O)O)c2)C=CC1=O | – | active: 20 µM
30 | CCCCCCSC1=C(C#N)C(c2ccc(C)o2)CC(=O)N1 (centres undefined) | – | inconclusive: 6.31 µM [inhibitor, partial curve]
31 | Cc1ccc(O)c(-c2cc3ccccc3[nH]2)c1 | – | inconclusive: 3.98 µM [inhibitor, single point]
32 | COCCNc1nc(-c2cccc(NS(C)(=O)=O)c2)nc2ccccc12 | – | inconclusive: 10 µM [inhibitor, single point]
33 | COc1ccc2[nH]cc(CCNc3ccnc(-c4cccc(C#N)c4)n3)c2c1 | – | inconclusive: 25.1 µM [inhibitor, single point]
34 | O=c1c(-c2cccs2)nc2cnc(Oc3ccccc3)nc2n1Cc1cccs1 | inactive: 203% | –
35 | CC(C)CN1CC2(CCN(C(=O)c3ccco3)CC2)C1 | inactive: -0.889% | –
36 | O=C(CSCc1ccccc1)Nc1nccs1 | – | inconclusive: 12.6 µM [inhibitor, single point]
37 | COc1ccc(-c2cc(C(F)(F)F)nc(N3CCN(C)CC3)n2)cc1 | inactive: 21.4% | –
38 | COc1ccc(S(=O)(=O)n2nc(OC(=O)c3ccccc3)cc2N)cc1 | – | inconclusive: 1.26 µM [inhibitor, partial curve]
39 | CCOC(=O)CNC(=O)Cn1c(C)cc2ccccc2c1=O | – | inconclusive: 25.1 µM [inhibitor, single point]
40 | CCOc1ccccc1CN(Cc1ccco1)S(=O)(=O)c1ccc(-n2cnnn2)c(OC)c1 | – | inconclusive: 6.31 µM [inhibitor, partial curve]
41 | Cc1ccc2c(c1)c1c(n2CC2COC(C)(C)O2)C(=O)CCC1 (centres undefined) | inactive: -0.769% | –
42 | CCOC(=O)c1cc(-c2ccccc2)sc1N | inactive: 14.6% | –
43 | CCCOC(=O)c1ccc(Oc2cn[nH]c2-c2ccc(OC)cc2O)cc1 | – | inconclusive: 25.1 µM [inhibitor, single point]
44 | N[C@H](C(=O)O)C(O)C(O)C(O)CO (some centres undefined) | – | inconclusive: 3.16 µM [inhibitor, single point]
45 | COc1ccc(C2C(C#N)=C(N)OC3=C2C(=O)CC(C)(C)C3)c(OC)c1OC (centres undefined) | – | inconclusive: 15.8 µM [inhibitor, partial curve, poor fit]
46 | FC(F)(F)c1ccccc1-c1nc(N2CCOCC2)c2ccccc2n1 | – | active: 10 µM
47 | Cc1c(C(=O)Nc2ccc3c(c2)OCO3)sc2nc(-c3ccccc3)cn12 | inactive: 29.4% | –
48 | CCN(CC)c1ccc(-c2nn3c(-c4ccccc4OC)nnc3s2)cc1 | – | inconclusive: 25.1 µM [inhibitor, single point]
49 | COc1cc(/C=C/C(=O)/C=C(O)/C=C/c2ccc(O)c(OC)c2)ccc1O | – | active: 10 µM
50 | Cc1ccc2nc(SCC(=O)Nc3c(C)n(C)n(-c4ccccc4)c3=O)[nH]c2c1 | – | inconclusive: 5.01 µM [inhibitor, single point]

Row | Compound | activity change, negative = inhibition | Potency
51 | CN(C)c1ccc(-c2nccc(NCc3cccs3)n2)cc1 | – | inconclusive: 25.1 µM [inhibitor, single point]
52 | CCOc1ccc(C2C(C#N)=C(N)SC(N)=C2C#N)cc1OCC | – | inconclusive: 0.631 µM [inhibitor, partial curve]
53 | CC(=O)c1ccc(N2CCN(C(=O)c3cc(-c4ccc5c(c4)OCO5)nc4ccccc34)CC2)cc1 | inactive: 23.4% | –
54 | Cc1ccc(S(=O)(=O)c2c(C)nn(C(C)(C)C)c2OC(=O)C2CCCC2)cc1 | – | inconclusive: 10 µM [inhibitor, partial curve]
55 | c1ccc(-c2onc3cc4c(cc23)OCCO4)cc1 | – | inconclusive: 20 µM [inhibitor, single point]
56 | O=C(CSc1nnc(-c2ccc(Cl)s2)o1)N1CCCc2ccccc21 | inactive: 0.867% | –
57 | Cc1nn(-c2ccc(Cl)cc2)c2sc(C(=O)N3CCN(C(=O)c4ccco4)CC3)cc12 | inactive: -3.44% | –
58 | CCC(O)c1cc2c(cc1NC(=O)c1cccs1)OCCO2 (centres undefined) | inactive: 1.42% | –
59 | CCN1CCN(C(=O)c2cnn3c(C(F)F)cc(-c4ccc(C)cc4)nc23)CC1 | inactive: 62.3% | –
60 | COc1ccc(Cl)cc1-c1n[nH]c(=S)o1 | – | inconclusive: 10 µM [inhibitor, single point]
61 | COc1ccc(C(=O)NCc2cccnc2)cc1OC | – | inconclusive: 25.1 µM [inhibitor, single point]
62 | CC1CCc2sc3ncn4nc(C(=O)NCc5ccco5)nc4c3c2C1 (centres undefined) | – | inconclusive: 5.01 µM [inhibitor, single point]
63 | Oc1c(CN2CCCCC2)cc(Br)c2cccnc12 | inactive: 16.8% | –
64 | CCOC(=O)N1CCN(c2c(F)cc3[nH]c(=S)[nH]c3c2Br)CC1 | – | inconclusive: 25.1 µM [inhibitor, single point]
65 | Cc1cccc(N2CSC3=C(C#N)C(c4ccc(C)o4)CC(=O)N3C2)c1 (centres undefined) | – | inconclusive: 12.6 µM [inhibitor, single point]
66 | O=S(=O)(Nc1ccc2c(c1)OCCO2)c1ccc2oc3ccccc3c2c1 | – | inconclusive: 25.1 µM [inhibitor, single point]
67 | COc1ccc(-c2csc(N(CC3CCCO3)C(=O)c3ccco3)n2)cc1 (centres undefined) | – | inconclusive: 10 µM [inhibitor, partial curve]
68 | CN1CCC(=C2c3ccccc3Sc3ccccc32)CC1 | – | inactive
69 | COc1cccc2cc(C(=O)Nc3cccc(C)n3)c(=O)oc12 | inactive: 18% | –
70 | COc1cccc(-c2nc(N(C)C)c3ccccc3n2)c1 | – | inconclusive: 12.6 µM [inhibitor, single point]
71 | CCNc1ncc2ncc(=O)n(C)c2n1 | – | inconclusive: 12.6 µM [inhibitor, single point]
72 | Nc1cc(Cl)c(NC2=NCCN2)c(Cl)c1 | inactive: 2.48% | –
73 | CCNS(=O)(=O)c1ccc(NS(=O)(=O)c2cc(C)ccc2C)cc1 | inconclusive: -59% [inhibitor] | –
74 | CCOC(=O)c1c(-c2ccccc2)nnn1-c1nc(OCC)nc(N2CCCCC2)n1 | – | inconclusive: 12.6 µM [inhibitor, single point]
